The assay has as its system P1534 leukemia ip, CD2F1 mice, survival T/C. As to the kind of experiment: NCI In Vivo Anticancer Drug Screen. Data for tumor model P1534 Leukemia (intraperitoneal) in CD2F1 (CDF1) mice. The following applies: endpoint: mean survival time, vehicle: saline, higher = longer survival. As to the method: The antitumor activity of compounds was measured in mice bearing transplantable tumors. Survival or tumor size were measured and the results are expressed as the measurement made in the treated group (T) divided by the measurement made in the vehicle treated control group (C). The tumor model used in this assay is P1534 Leukemia (intraperitoneal) in CD2F1 (CDF1) mice

Molecules are shown by their SMILES. Toxic doses and inconclusive results are not listed. Some entries of the source have several records that differ or are many. The list is limited to them. An entry can have further records. Values that stand side by side repeat one measurement across runs, samples, wells, individuals or studies.

In the case of `CC[C@]1(O)C[C@H]2CN(CCc3c([nH]c4ccccc34)[C@@](C(=O)OC)(c3cc4c(cc3OC)N(C=O)[C@H]3[C@@](O)(C(=O)OC)[C@H](OC(C)=O)[C@]5(CC)C=CCN6CC[C@]43[C@@H]65)C2)C1`, the T/C (dose: 0.67 mg/kg/injection, schedule: Q02DX008 (ip)) is listed as 102 % of control, 106 % of control, 313 % of control.

`OCC1OC(n2cnc3c(=S)nc[nH]c32)C(O)C1O` (configuration not stated): for the setting “dose: 160.0 mg/kg/injection, schedule: Q01DX010 (ip)”, the T/C is 111 % of control and 166 % of control.

Source of the values: PubChem BioAssay AID316 (DTP/NCI, 2004).
